# According to PubChem BioAssay AID686978 (National Center for Advancing Translational Sciences (NCATS), 2013):
# Out of some 420,000 compounds screened, about 64,000 (15%) were called active. The inconclusive results got no clear call from the source; some entries with a clear call stand among them for comparison. The call rests on the fitted dose curve; in most records, active means well fitted inhibition curve with a large enough effect; inconclusive means small, poorly fitted or top-dose-only effect; inactive means flat fitted curve, though single readings scatter. No potency is given beside an inconclusive call; the fits are too rough.
# Experiment: qHTS for Inhibitors of human tyrosyl-DNA phosphodiesterase 1 (TDP1): qHTS in cells in absence of CPT; further: nearly all actives have a fitted effect of over 55% in size
# Conditions: DT40 Tdp1-/- hTDP1 cells, no CPT, ATP luminescence, 48 h; activity change, negative = growth inhibition: at 46.2 µM (top of the series) unless noted
# Method in brief: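 Luminescent ATP content (CellTiter-Glo) served as the growth readout. Knockout chicken DT40 cells expressing human TDP1 were exposed to compounds without camptothecin for a minimum 48 hr at 37 °C.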
# On the % scale 0 is the no-effect control and ±100 the full control effect; potency means the concentration at half of the fitted maximal effect; tags describe the fitted curve by direction and shape.
SMILES,Potency,"activity change, negative = growth inhibition"
O=C(COc1ccccc1)Nc1ccc(S(=O)(=O)NCc2ccco2)cc1,"inconclusive [inhibitor, single point]",
COc1ccc(S(=O)(=O)N2CCN(c3ccc(F)cc3)CC2)cc1C(=O)N1CCCC1,"inconclusive [inhibitor, single point]",
CCCCCC(=O)N1C[C@H](O)[C@@H](n2cc(COC(=O)c3ccccc3)nn2)C[C@@H]1c1ccc(Cl)cc1,active: 25.9 µM,
O=C(NCCCN1CCCC1=O)c1cc2nc(-c3ccco3)cc(C(F)(F)F)n2n1,"inconclusive [inhibitor, single point]",
COc1ccccc1NC(=S)N1C2CCC1CC(NC(=O)NC13CC4CC(CC(C4)C1)C3)C2 (stereo unspecified),"inconclusive [inhibitor, single point]",
CSc1ccccc1NC(=O)c1noc2c1CCC2,,inactive: -20.5%
CCn1c(=O)c2cc(C(=O)N(C)c3cc(C)ccc3OC)sc2c2ccccc21,"inconclusive [inhibitor, partial curve, poor fit]",
CSc1nc2ccccc2n1Cc1c(Cl)cccc1Cl,"inconclusive [inhibitor, single point]",
CCC(c1nnnn1C(C)(C)C)N1CCN(C2CCCC2)CC1 (stereo unspecified),,inactive: 0.987%
CC(C)SCCCOc1ccc(C(C)(C)C)cc1,"inconclusive [inhibitor, single point]",
CCc1nnc(NC(=O)CSc2nnc(Cc3ccccc3)o2)s1,,inactive: -25%
O=C(Nc1ccc(Cl)c(Cl)c1)Nc1cc(S(=O)(=O)N2CCOCC2)ccc1N1CCCC1,active: 18.4 µM,
CC(C)Cc1nc(N2CCN(C(=O)c3ccco3)CC2)c(C#N)c2c1CCC2,,inactive: -28.7%
O=C(C1CCC1)N1CCC(c2nc3c(nnn3Cc3c(F)cccc3Cl)c(=O)[nH]2)CC1,"inconclusive [inhibitor, partial curve]",
O=C(Cc1ccc(O)cc1)N/N=C/c1cccnc1,,inactive: 6.14%
Cc1cc(OCCN2CCC(Cc3ccccc3)CC2)ccc1[N+](=O)[O-],"inconclusive [inhibitor, single point]",
C/C=C/Cn1c(SCc2ccccc2)nc2c1c(=O)[nH]c(=O)n2C,"inconclusive [inhibitor, single point]",
O=C(Nc1cccc(N2CCCC2)c1)c1cccs1,"inconclusive [inhibitor, single point]",
O=C(/C=C/c1ccco1)Nc1cccc2cccnc12,,inactive: -14.1%
CCOC(=O)c1cc(-c2ccccc2)n(CCCC(=O)Nc2ccccc2C)c1C,active: 23.1 µM,
CC1CC(C)CN(S(=O)(=O)c2ccc(C(=O)N3CCN(c4ccccc4)CC3)cc2)C1 (stereo unspecified),"inconclusive [inhibitor, single point]",
Cc1ccc(NC(=S)N2CCCC(c3nc4ccc(C)cc4[nH]3)C2)c(C)c1 (stereo unspecified),"inconclusive [inhibitor, single point]",
O=C(CN1CCN(C(=O)c2cncn2-c2ccccc2)CC1)Nc1ccccc1Cl,,inactive: -24.2%

SMILES,Potency,"activity change, negative = growth inhibition"
CCOC(=O)c1c(C)[nH]c(C)c1C(=O)COC(=O)/C=C/c1ccccc1[N+](=O)[O-],"inconclusive [inhibitor, single point]",
Nc1nnc(CC(=O)N/N=C\c2ccc(-c3cccc(Cl)c3)o2)s1,,inactive: 3.01%
Cc1nnc(SCC(=O)N2CCCC2)n1-c1ccc(F)cc1,,inactive: -5.4%
CN1CCN(C2CCN(S(=O)(=O)c3ccc(C(C)(C)C)cc3)CC2)CC1,"inconclusive [inhibitor, single point]",
CCOC(=O)N1CCN(CC(=O)Nc2cc(OCC)ccc2OCC)CC1,"inconclusive [inhibitor, single point]",
CCN(C(=O)COC(=O)CNC(=O)C12CC3CC(CC(C3)C1)C2)C1CCS(=O)(=O)C1 (stereo unspecified),,inactive: -22.2%
CCN(Cc1ccccc1)S(=O)(=O)c1ccc2c(c1)NC(=O)CS2,"inconclusive [inhibitor, single point]",
COc1ccccc1CN1CN(S(=O)(=O)c2ccccc2)c2nc3ccccc3nc21,"inconclusive [inhibitor, single point]",
O=C(Nc1cccc(-n2cccn2)c1)C1CCCN(Cc2ccccc2F)C1 (stereo unspecified),"inconclusive [inhibitor, single point]",
COc1ccc(CNC(=O)c2sc3nc4n(c(=O)c3c2C)CCCCC4)cc1,"inconclusive [inhibitor, single point]",
COc1ccc(C(CNC(=O)C(C)(C)Oc2ccc(Cl)cc2)N2CCCC2)cc1 (stereo unspecified),"inconclusive [inhibitor, single point]",
Cc1nc(-c2ccc(S(=O)(=O)Nc3ccc(Cl)c(C(F)(F)F)c3)cc2)co1,,inactive: -8.96%
COc1ccc([C@H]2CN(c3ccccc3)C(=O)[C@@H]2CC(=O)Nc2ccccc2)cc1,"inconclusive [inhibitor, partial curve]",
COc1ccc(C(C)(C)C)cc1NC(=O)c1ccccc1-n1cnnn1,"inconclusive [inhibitor, partial curve]",
O=C(/C=C/c1ccccc1Cl)OCC(=O)c1ccc[nH]1,,inactive: 14.1%
CCCCC(SCC(=O)Nc1ccccc1)C(=O)O (stereo unspecified),,inactive: -3.43%
CCN1CCSc2ccc(C(=O)NCc3ccccc3C)cc21,"inconclusive [inhibitor, single point]",
Cc1ccc2nc(COc3cccc(NC(=O)c4ccccc4Cl)c3)cc(=O)n2c1,,inactive: -18.2%
COc1ccc(S(=O)(=O)N2CCN(Cc3cccc([N+](=O)[O-])c3)CC2)cc1,"inconclusive [inhibitor, single point]",
C=CCCN([C@@H](C)C(=O)OC)S(=O)(=O)c1ccccc1Br,"inconclusive [inhibitor, single point]",
COC(=O)C(N)CS (stereo unspecified),,inactive: 24.7%
CC(C)CN(CCNC(=O)c1cc(-c2cccs2)nc2ccccc12)CC(C)C,"inconclusive [inhibitor, single point]",
CCOc1ccccc1CNC(=O)c1cnc2sc(N(CC)CC)nn2c1=O,"inconclusive [inhibitor, single point]",
